According to patent US12630643B2, “CD40 binding protein, bispecific conjugate thereof and method of treating cancer” (priority 2020, dated 2026):

Target: interaction between CD40 ligand (CD40L) and human CD40 (Homo sapiens, UniProt P25942)
Assay: CD40 ligand inhibition by SPR
Details: 20 nM hCD40-Fc pre-incubated with 10 times molar excess of CD40 ligand

Sequence of interaction between CD40 ligand (CD40L) and human CD40 (P25942 21-193): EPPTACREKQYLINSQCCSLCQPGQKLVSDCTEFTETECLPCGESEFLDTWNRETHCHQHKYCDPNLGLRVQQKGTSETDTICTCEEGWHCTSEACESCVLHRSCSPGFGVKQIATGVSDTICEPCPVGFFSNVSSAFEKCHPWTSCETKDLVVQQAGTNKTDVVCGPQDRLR

## X-SM083-ab-5: agonistic anti-CD40 antibody CP-870,893 (US 2017/0342159) as hIgG2 [reference compound]
  binding to CD40-Fc with CD40 ligand present: unaffected by the presence of CD40 ligand
